# Experimental data published in the supplement of paper PMC4166925.
# ± gives the standard deviation of the averaged measurements. Whole data set: some 33,000 sequences, median “E-score (dimensionless, -0.5 to 0.5)” near -0.049, cut for the highest 2% near 0.37. This is one part of the list.
# Tested on: T1, PmTbr T-box DNA-binding domain (GST fusion)
# T1 sequence: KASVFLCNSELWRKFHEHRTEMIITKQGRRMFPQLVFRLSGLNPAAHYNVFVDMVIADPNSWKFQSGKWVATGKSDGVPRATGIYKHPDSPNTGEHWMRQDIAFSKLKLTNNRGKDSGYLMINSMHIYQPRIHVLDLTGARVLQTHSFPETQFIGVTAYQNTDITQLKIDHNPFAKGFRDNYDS
# Assay: PBM E-score of 8-mer (E-score (dimensionless, -0.5 to 0.5)); Tbr is Tbrain of the sea star Patiria miniata (Pm) or the sea urchin Strongylocentrotus purpuratus (Sp); higher = stronger binding preference; most listed sequences are background and not binding sites
# Settings: the construct has about 5 more residues each side
# Summary of the method: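 Each ungapped 8-mer received an enrichment E-score from the Universal PBM Analysis Suite, averaged over duplicate arrays. The proteins were Tbr T-box DNA-binding domains, covering the whole T-box plus about five flanking residues, fused to GST and expressed in BL21 E. coli at 20 °C before glutathione affinity purification. Universal Agilent oligonucleotide arrays were made double-stranded by primer extension and incubated with 200 nM protein in PBS (pH 7.5). The arrays were then scanned and quantified, and every 8-mer was scored from probe intensities.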
row,Sequence,PBM E-score of 8-mer
1,ATAAACTG,-0.0165 ± 0.079
2,AAATTATA,-0.13 ± 0.066
3,CATCTGGC,-0.073 ± 0.018
4,CATTTCGA,0.0104 ± 0.03
5,TCATTGAA,-0.0959 ± 0.0025
6,GAGCGGGA,0.0084 ± 0.033
7,CTGGAATC,-0.132 ± 0.092
8,CACAGGCC,-0.0903 ± 0.017
9,GGGCACAC,0.0773 ± 0.041
10,ACCCTTTA,0.035 ± 0.043
11,ACGGCAAA,-0.245 ± 0.047
12,AGCCCCCC,-0.112 ± 0.046
13,CAATATCG,0.06478 ± 0.00031
14,ATTATAAG,-0.2289 ± 0.00032
15,GCTTAGGA,-0.125 ± 0.036
16,CCATTACA,0.0321 ± 0.063
17,CGGAGCCA,-0.179 ± 0.091
18,GAGGGCAC,-0.113 ± 0.017
19,CATCGTGC,-0.0291 ± 0.084
20,CCTATGCG,0.137 ± 0.023
21,AACCGTCG,0.0733 ± 0.046
22,ATCCCGCA,-0.0983 ± 0.014

row,Sequence,PBM E-score of 8-mer
1,GTCCTTGA,-0.206 ± 0.0022
2,AAAAGCGA,0.0236 ± 0.086
3,AACCCCCC,-0.201 ± 0.06
4,ATGCCCCC,-0.293 ± 0.065
5,CGCAGAGC,-0.0402 ± 0.014
6,CTAACTGC,0.131 ± 0.0079
7,GCATCTTA,-0.138 ± 0.037
8,ACCTACAG,0.212 ± 0.072
9,CTCCGTGA,0.0763 ± 0.078
10,CATCAAGG,-0.125 ± 0.024
11,GTACTAAC,-0.0106 ± 0.075
12,CCAATTAC,-0.0328 ± 0.018
13,AATGGTAG,0.0269 ± 0.039
14,GACCACAA,-0.103 ± 0.095
15,GTCGCTGA,0.111 ± 0.071
16,ACATACAG,0.0863 ± 0.053
17,GAGACTAC,-0.227 ± 0.069
18,CCGAAAAC,-0.165 ± 0.035
19,AAGACTGA,-0.145 ± 0.0051
20,ATTGACCC,-0.0187 ± 0.017
21,ACTCAACG,-0.122 ± 0.033
22,ACTTAAGG,-0.0457 ± 0.01

row,Sequence,PBM E-score of 8-mer
1,ACGGCGCT,0.187 ± 0.094
2,ATAGGTGG,0.26 ± 0.051
3,GGGGCCCA,-0.101 ± 0.011
4,CAAATCAG,-0.038 ± 0.029
5,TACGACGA,0.0232 ± 0.034
6,GGCTCATA,-0.172 ± 0.078
7,CATTCCGA,0.102 ± 0.028
8,CTGATAGC,0.0709 ± 0.043
9,CCTAAATA,-0.143 ± 0.023
10,AGCACCTC,0.4279 ± 0.0012
11,ACCCCAAA,-0.102 ± 0.055
12,ATATTTCA,0.133 ± 0.071
13,AACAAGGG,-0.0471 ± 0.065
14,AAACAAAC,-0.235 ± 0.068
15,AAGATCTG,-0.162 ± 0.066
16,CTCCCAAA,-0.105 ± 0.0091
17,CGCATCAA,-0.0871 ± 0.16
18,AAAATGGT,0.0989 ± 0.048
19,ATGTCCTA,-0.284 ± 0.056
20,ACATCCCT,-0.0937 ± 0.058
21,TGTAGGAA,-0.0534 ± 0.022
22,CACGTCCC,0.156 ± 0.047

row,Sequence,PBM E-score of 8-mer
1,AGGTTGAA,-0.273 ± 0.056
2,AAGAGCTG,-0.00496 ± 0.016
3,AAATACCG,-0.139 ± 0.013
4,AGGCCCAA,-0.224 ± 0.0036
5,TTATAGAA,-0.218 ± 0.075
6,CGCCACAG,0.0395 ± 0.054
7,CCGAAATA,0.0155 ± 0.026
8,CCTGTTTC,-0.145 ± 0.032
9,ATTGAAAG,-0.139 ± 0.056
10,AGCAGTCA,0.00374 ± 0.013
11,ACTTTTGG,0.0502 ± 0.058
12,AAACCGTG,0.137 ± 0.07
13,CCTGCAGC,-0.113 ± 0.099
14,CCGTTACA,-0.0148 ± 0.054
15,GCCGCATA,-0.00303 ± 0.028
16,TATCCATA,-0.278 ± 0.055
17,TGCCAACA,0.326 ± 0.011
18,TATCGGGA,-0.00353 ± 0.05
19,AGTTAGTG,0.139 ± 0.029
20,AAATAGAT,-0.277 ± 0.042
